Experimental data taken from the supplement of paper PMC8728848.
The list shows a part of the results.

Assays:
Test in all cases: glycan array binding signal (z-score within array); higher = stronger binding
Conditions in all cases: glycan notation: IUPAC condensed, linker removed
[1] = molecular target: GalNAc(b1-4)GlcNAc(b1-2)Man
In short: (§1)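 Glycan array binding is given as a within-array Z-score, which can be read as non-binding when negative. The arrays, 3228 of them, came from the Consortium for Functional Glycomics database and were retained only where the protein sequence was available. Z-scores were averaged across arrays of the same protein sequence at different concentrations or buffers and across linkers.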

[2] = molecular target: GalNAc(b1-4)GlcNAc(b1-2)Man(a1-3)[GalNAc(b1-4)GlcNAc(b1-2)Man(a1-6)]Man(b1-4)GlcNAc(b1-4)GlcNAc
In short: as §1

[3] = molecular target: GalNAc(b1-4)GlcNAc(b1-3)GalNAc(b1-4)GlcNAc
In short: as §1

[4] = molecular target: GalNAc(b1-4)GlcNAc6S
In short: as §1

[5] = molecular target: GalNAc(b1-6)GalNAc
In short: as §1

[6] = molecular target: GalNAc3S(b1-4)GlcNAc
In short: as §1

[7] = molecular target: GalNAc3S(b1-4)GlcNAc3S
In short: as §1

[8] = molecular target: GalNAc3S(b1-4)[Fuc(a1-3)]GlcNAc
In short: as §1

[9] = molecular target: GalNAc4S6S(b1-4)GlcNAc
In short: as §1

[10] = molecular target: GalNAc6S(b1-4)GlcNAc
In short: as §1

[11] = molecular target: Glc(a1-4)Glc
In short: as §1

[12] = molecular target: Glc(a1-4)Glc(a1-4)Glc(a1-4)Glc
In short: as §1

[13] = molecular target: Glc(a1-6)Glc(a1-6)Glc
In short: as §1

[14] = molecular target: Glc(a1-6)Glc(a1-6)Glc(a1-6)Glc
In short: as §1

[15] = molecular target: Glc(b1-4)Glc
In short: as §1

[16] = molecular target: Glc(b1-6)Glc
In short: as §1

[17] = molecular target: GlcA(b1-3)Gal
In short: as §1

[18] = molecular target: GlcA(b1-3)GlcNAc
In short: as §1

[19] = molecular target: GlcA(b1-6)Gal
In short: as §1

[20] = molecular target: GlcA3S(b1-3)Gal(b1-4)GlcNAc(b1-2)Man
In short: as §1

[21] = molecular target: GlcA3S(b1-3)Gal(b1-4)GlcNAc(b1-3)Gal(b1-4)Glc
In short: as §1

[22] = molecular target: GlcNAc(a1-3)Gal(b1-4)GlcNAc
In short: as §1

[23] = molecular target: GlcNAc(a1-4)Gal(b1-3)GlcNAc
In short: as §1

[24] = molecular target: GlcNAc(a1-4)Gal(b1-4)GalNAc
In short: as §1

[25] = molecular target: GlcNAc(a1-4)Gal(b1-4)GlcNAc
In short: as §1

[26] = molecular target: GlcNAc(a1-4)Gal(b1-4)GlcNAc(b1-3)Gal(b1-4)Glc
In short: as §1

[27] = molecular target: GlcNAc(a1-4)Gal(b1-4)GlcNAc(b1-3)Gal(b1-4)GlcNAc
In short: as §1

[28] = molecular target: GlcNAc(a1-4)Gal(b1-4)GlcNAc(b1-3)Gal(b1-4)GlcNAc(b1-3)Gal(b1-4)GlcNAc
In short: as §1

[29] = molecular target: GlcNAc(a1-4)Gal(b1-4)GlcNAc(b1-3)Gal(b1-4)[Fuc(a1-3)]GlcNAc(b1-3)Gal(b1-4)[Fuc(a1-3)]GlcNAc
In short: as §1

[30] = molecular target: GlcNAc(a1-6)Gal(b1-4)GlcNAc
In short: as §1

[31] = molecular target: GlcNAc(b1-2)Gal(b1-3)GalNAc
In short: as §1

[32] = molecular target: GlcNAc(b1-2)Man(a1-3)[GlcNAc(b1-2)Man(a1-6)]Man(b1-4)GlcNAc(b1-4)GlcNAc
In short: as §1

[33] = molecular target: GlcNAc(b1-2)Man(a1-3)[GlcNAc(b1-2)Man(a1-6)]Man(b1-4)GlcNAc(b1-4)[Fuc(a1-6)]GlcNAc
In short: as §1

[34] = molecular target: GlcNAc(b1-2)Man(a1-3)[GlcNAc(b1-4)][GlcNAc(b1-2)Man(a1-6)]Man(b1-4)GlcNAc(b1-4)GlcNAc
In short: as §1

[35] = molecular target: GlcNAc(b1-2)Man(a1-3)[GlcNAc(b1-4)][GlcNAc(b1-2)Man(a1-6)]Man(b1-4)GlcNAc(b1-4)[Fuc(a1-6)]GlcNAc
In short: as §1

[36] = molecular target: GlcNAc(b1-2)[GlcNAc(b1-4)]Man(a1-3)[GlcNAc(b1-2)Man(a1-6)]Man(b1-4)GlcNAc(b1-4)GlcNAc
In short: as §1

[37] = molecular target: GlcNAc(b1-2)[GlcNAc(b1-4)]Man(a1-3)[GlcNAc(b1-4)][GlcNAc(b1-2)Man(a1-6)]Man(b1-4)GlcNAc(b1-4)GlcNAc
In short: as §1

[38] = molecular target: GlcNAc(b1-2)[GlcNAc(b1-4)]Man(a1-3)[GlcNAc(b1-4)][GlcNAc(b1-2)[GlcNAc(b1-6)]Man(a1-6)]Man(b1-4)GlcNAc(b1-4)GlcNAc
In short: as §1

[39] = molecular target: GlcNAc(b1-2)[GlcNAc(b1-4)]Man(a1-3)[GlcNAc(b1-4)][GlcNAc(b1-2)[GlcNAc(b1-6)]Man(a1-6)]Man(b1-4)GlcNAc(b1-4)[Fuc(a1-6)]GlcNAc
In short: as §1

[40] = molecular target: GlcNAc(b1-2)[GlcNAc(b1-6)]Man(a1-6)[GlcNAc(b1-2)Man(a1-3)]Man(b1-4)GlcNAc(b1-4)GlcNAc
In short: as §1

[41] = molecular target: GlcNAc(b1-2)[GlcNAc(b1-6)]Man(a1-6)[GlcNAc(b1-2)Man(a1-3)]Man(b1-4)GlcNAc(b1-4)[Fuc(a1-6)]GlcNAc
In short: as §1

[42] = molecular target: GlcNAc(b1-2)[GlcNAc(b1-6)]Man(a1-6)[GlcNAc(b1-4)][GlcNAc(b1-2)Man(a1-3)]Man(b1-4)GlcNAc(b1-4)GlcNAc
In short: as §1

[43] = molecular target: GlcNAc(b1-3)Fuc
In short: as §1

[44] = molecular target: GlcNAc(b1-3)Gal
In short: as §1

[45] = molecular target: GlcNAc(b1-3)Gal(b1-3)GalNAc
In short: as §1

B1: Pwp2 (Candida glabrata) (protein)
chain: MGSSHHHHHHSSGLVPRGSHMASKNPVELNNVCTFPNDYGRIPGFTVLVGRLGLLISASDYKELLRYPGAFLIATQDTMTTSPNFELTGFPFFTGLYGLTVFPLDLLVELRGYFVPPNSGQYTFTLSDSDDAAIIFLGNPSAFPCGDLQNWPKPSEEDITVTDHLFPSRTLYLIEGVAYPMRIAYYNGIGAGRLNAAFIDPSGTRHTNWEGYIWQYDPCSTCTYS
- glycan array binding signal (z-score) [1]: 0.217
- glycan array binding signal (z-score) [2]: -0.529
- glycan array binding signal (z-score) [3]: -0.053
- glycan array binding signal (z-score) [4]: -0.448
- glycan array binding signal (z-score) [5]: 0.08
- glycan array binding signal (z-score) [6]: 0.356
- glycan array binding signal (z-score) [7]: -0.112
- glycan array binding signal (z-score) [8]: -0.648
- glycan array binding signal (z-score) [9]: 0.508
- glycan array binding signal (z-score) [10]: -0.497
- glycan array binding signal (z-score) [11]: 0.073
- glycan array binding signal (z-score) [12]: -0.136
- glycan array binding signal (z-score) [13]: 0.7
- glycan array binding signal (z-score) [14]: 0.246
- glycan array binding signal (z-score) [15]: -0.445
- glycan array binding signal (z-score) [16]: 1.39
- glycan array binding signal (z-score) [17]: -0.595
- glycan array binding signal (z-score) [18]: -0.467
- glycan array binding signal (z-score) [19]: -0.235
- glycan array binding signal (z-score) [20]: -0.439
- glycan array binding signal (z-score) [21]: -0.956
- glycan array binding signal (z-score) [22]: -0.358
- glycan array binding signal (z-score) [23]: -0.526
- glycan array binding signal (z-score) [24]: -0.366
- glycan array binding signal (z-score) [25]: -0.736
- glycan array binding signal (z-score) [26]: -0.466
- glycan array binding signal (z-score) [27]: -0.584
- glycan array binding signal (z-score) [28]: -0.42
- glycan array binding signal (z-score) [29]: -0.364
- glycan array binding signal (z-score) [30]: -0.524
- glycan array binding signal (z-score) [31]: -0.485
- glycan array binding signal (z-score) [32]: 0.373
- glycan array binding signal (z-score) [33]: -0.514
- glycan array binding signal (z-score) [34]: -0.387
- glycan array binding signal (z-score) [35]: -0.712
- glycan array binding signal (z-score) [36]: -0.966
- glycan array binding signal (z-score) [37]: -0.425
- glycan array binding signal (z-score) [38]: -0.398
- glycan array binding signal (z-score) [39]: -0.116
- glycan array binding signal (z-score) [40]: -1.28
- glycan array binding signal (z-score) [41]: 3.55
- glycan array binding signal (z-score) [42]: -0.451
- glycan array binding signal (z-score) [43]: -0.141
- glycan array binding signal (z-score) [44]: -0.529
- glycan array binding signal (z-score) [45]: 0.299
